# Reference: the supplement of paper PMC12217912
# The other results are listed elsewhere or left out. Sequences were assembled here from the parent chain. Inactive controls read about 0.05.
# B1: TEV protease; numbered along this chain (parent)
# chain: MGESLFKGPRDYNPISSSICHLTNESDGHTTSLYGIGFGPFIITNKHLFRRNNGTLVVQSLHGVFKVKDTTTLQQHLVDGRDMIIIRMPKDFPPFPQKLKFREPQREERICLVTTNFQTKSMSSMVSDTSCTFPSGDGIFWKHWIQTKDGQCGSPLVSTRDGFIVGIHSASNFTNTNNYFTSVPKNFMELLTNQEAQQWVSGWRLNADSVLWGGHKVFMVKPEEPFQPVKEATQL
# Variants of: B1
# Test: raw area under fraction-flipped curve 0-4 h after induction (AUC4h, not background-subtracted), DNA-recorder readout of cleavage of the substrate (dimensionless); higher = more cleavage of the substrate by the protease variant
# Settings: temperature: 34 °C; time window: 0-4 h after rhamnose induction
# Method: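 In vivo DNA recorder in E. coli TOP10(DE3) ΔrhaA at 34 °C. Each TEVp single-site mutant (parent TEVp 0) is paired with a single-site variant of the 7-mer TEVs (canonical ENLYFQ|S). The substrate sits between flexible linkers in a Bxb1-sfGFP-TEVs-SsrA fusion, so cleavage stabilises Bxb1 and speeds flipping of a recombination array, read by NGS. The value is the raw area under the fraction-flipped curve over 0-4 h after rhamnose induction (AUC4h), with ≥20 reads per time point. It is not background-subtracted; inactive controls average about 0.047.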
# 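Further: Bxb1 expression induced with 0.2% (w/v) L-rhamnose at OD600 near 0.5, cultures sampled hourly, flipped fraction per protease–substrate barcode pair counted by paired-end Illumina sequencing.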
Variant,area with substrate ENLYAQS,area with substrate ENLYGQS,area with substrate ENLYHQS,area with substrate ENLYSQS,area with substrate ENLYWQS,area with substrate ENLYEQS,area with substrate ENLYIQS,area with substrate ENLYPQS,area with substrate ENLYRQS,area with substrate ENLYYQS
G2A,0.117,0.088,0.0859,0.0787,0.136,–,–,–,–,–
G2N,0.0782,–,–,–,0.092,0.0346,0.159,0.103,0.0407,0.0721
E3A,0.0789,–,0.0403,0.0852,–,0.0496,0.121,0.0652,0.0797,0.0613
E3D,0.0764,0.0575,0.058,–,–,0.0797,0.155,0.0759,–,–
E3W,0.09,0.0561,0.0727,–,–,0.0759,–,0.0684,0.0669,–
S4A,0.118,0.0739,0.0624,–,–,–,0.124,–,0.0652,–
P9N,0.063,–,0.067,–,0.0947,–,–,0.0911,0.0851,–
S18G,0.0717,0.055,0.062,0.0403,0.075,0.0725,0.123,0.074,0.0897,–
L22M,0.0703,0.0677,0.0724,0.067,0.0742,0.0641,–,0.0723,0.0605,0.0509
D27E,0.083,0.0764,–,–,0.0436,0.0549,0.117,0.0882,0.0566,–
T30D,0.0759,0.0723,0.0637,–,0.0751,0.0782,0.108,–,0.0758,–
G35S,0.055,0.0878,–,–,–,–,–,–,–,–
G35T,0.0578,–,0.0556,–,0.03,0.0466,0.0415,0.028,–,0.032
R50W,0.073,0.0641,–,0.0788,0.108,0.0537,0.132,0.0648,–,–
R50Y,0.079,–,0.0714,0.07,0.116,0.0653,0.129,0.0858,0.0598,–
N53L,0.0448,0.0555,0.0459,–,0.0655,0.0627,–,–,–,–

Variant,area with substrate ENLYAQS,area with substrate ENLYGQS,area with substrate ENLYHQS,area with substrate ENLYSQS,area with substrate ENLYWQS,area with substrate ENLYEQS,area with substrate ENLYIQS,area with substrate ENLYPQS,area with substrate ENLYRQS,area with substrate ENLYYQS
V57E,0.0692,0.0536,0.0426,0.0754,0.0884,0.0664,0.117,0.074,0.0615,0.0605
Q59N,0.0924,–,0.0684,0.0444,0.0802,–,0.114,0.0789,–,–
Q59R,0.0941,–,–,0.0575,0.104,0.069,0.129,0.0691,0.0703,–
S60W,0.0794,0.0648,–,0.073,–,0.0686,0.139,0.0783,0.0605,0.0614
F65I,0.0424,0.0525,0.0624,–,0.0648,0.0526,–,–,0.0569,–
K66A,0.0658,–,–,–,0.0927,–,–,0.0848,0.0271,–
K66H,0.0707,0.0632,0.0688,–,0.107,0.0717,–,–,–,–
K66Q,0.0674,–,0.0728,–,0.0926,0.0587,0.122,0.0596,–,–
K66Y,0.0475,0.0776,0.0787,0.0568,0.0726,–,0.0865,–,–,0.0716
Q75D,0.0638,0.0647,–,0.0396,–,–,0.0815,0.034,–,0.0556
V78D,0.0559,0.0578,0.0561,0.0526,0.0624,0.064,0.0673,0.0591,0.05,0.0473
V78E,0.0646,0.0594,0.0604,0.068,0.0683,–,–,0.0629,0.0595,–
V78I,0.0896,0.0581,0.0639,0.068,–,0.0759,0.0454,–,0.0631,–
R81A,0.0406,0.0625,–,0.0497,0.0678,0.0609,–,0.0752,–,–
R81P,0.0554,0.0231,–,–,–,–,0.0641,–,0.0624,–
I84H,0.0697,0.0375,0.0453,–,0.0535,–,–,0.0563,0.0551,–

# Same assay, conditions: temperature: 34 °C; time window: 0-4 h after rhamnose induction
Variant,area with substrate ENLYDQS,area with substrate ENLYKQS,area with substrate ENLYNQS,area with substrate ENLYTQS,area with substrate ENLYVQS,area with substrate ENLYMQS,area with substrate ENLYCQS,area with substrate ENLYLQS,area with substrate ENLYQQS
E3A,0.0675,0.0094,0.0782,0.0872,0.106,–,–,–,–
E3D,–,0.0654,–,–,–,0.119,–,–,–
E3W,–,–,–,0.0672,–,0.113,0.0908,0.0929,0.0659
S4A,0.0063,–,–,–,–,–,0.0781,–,–
P9N,0.0666,–,–,–,0.115,–,–,–,–
S18G,0.0723,0.0188,0.0637,0.0803,0.089,0.0712,0.0824,–,0.0556
L22M,0.0551,0.0574,0.0637,0.0761,–,0.0833,–,0.0752,0.062
D27E,0.0797,0.0539,0.0704,0.0827,–,–,0.113,–,–
T30D,0.0463,0.059,0.0494,0.0757,0.107,0.103,–,–,–
G35S,–,0.038,0.0459,–,0.0627,0.0552,–,0.0661,–
G35T,–,–,0.0471,–,0.0297,–,–,0.0227,–
R50W,0.0438,–,–,–,0.198,0.0882,–,–,0.0807
R50Y,–,–,0.0736,–,–,0.101,–,–,0.0931
N53L,0.0558,–,0.0648,–,0.134,–,–,–,–
V57E,–,–,0.0882,0.0422,–,–,0.0716,–,–
Q59N,0.0718,0.0676,0.0447,–,–,–,0.0566,0.071,–
Q59R,0.0522,0.0436,0.0671,–,–,0.0709,–,–,–
S60W,–,0.0645,0.0944,–,–,–,–,–,–
F65I,0.0639,–,–,0.0798,–,–,0.0447,–,–
K66A,–,0.0551,–,–,–,–,–,–,–
K66H,–,0.124,–,0.083,–,0.0756,–,0.0844,–
K66Q,–,–,0.0723,–,0.123,0.1,–,–,0.079
K66Y,0.0516,0.0563,–,–,0.163,0.101,–,–,0.0486
Q75D,0.0495,0.0596,0.049,–,–,0.0575,0.0674,–,0.0631
V78D,0.0583,0.036,0.0533,–,–,0.0644,0.049,0.0681,0.0447
V78E,–,0.0556,0.0645,–,–,0.0764,0.0436,0.0704,–
V78I,–,–,0.0574,0.0798,–,–,–,–,–
R81A,0.0537,0.0588,0.0589,–,–,–,–,0.0825,0.0593
R81P,0.0753,–,–,–,0.0697,–,–,–,–
I84H,0.0626,0.0833,0.0502,0.0476,0.0589,0.0565,–,–,–
